{"source": "the supplement of paper PMC8728848", "binders": {"B1": {"name": "Cohesin-mDCIR (Macaca mulatta) (protein)", "chain": "GLDDLDAVRIKVDTVNAKPGDTVRIPVRFSGIPSKGIANCDFVYSYDPNVLEIIEIEPGDIIVDPNPDKSFDTAVYPDRKIIVFLFAEDSGTGAYAITKDGVFATIVAKVKEGAPNGLSVIKFVEVGGFANNDLVEQKTQFFDGGVNVGDTTEPATPTTPVTTPTTTDDLDAASFQKYSQLLEKMTTKDLVHTTLECVKKNMTTEETAWSCCPKNWKPFSSNCYFISTESASWQKSEKDCARMEAHLLVINTREEQDFIFQNLQEESAYFVGLSDPEGQRHWQWVDRTPYNESSTFWHPHEPSDPDERCVVLNFRKTPKRWGWNDVHCIVHQRSVCEMMKIHLHHHHHH"}}, "assay_in_all_cases": "glycan array binding signal (z-score within array); higher = stronger binding", "details_in_all_cases": "glycan notation: IUPAC condensed, linker removed", "key": {"[1]": {"biological_target": "Fuc(a1-3)[Gal(b1-4)]GlcNAc(b1-3)Gal(b1-4)[Fuc(a1-3)]GlcNAc", "in_short": "(§1)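 The binding signal is a Z-score computed within each array and averaged over linkers. Arrays of the same protein sequence at different concentrations or buffers were also averaged together. Data originate from 3228 arrays in the Consortium for Functional Glycomics database, kept only where the protein sequence was available.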"}, "[2]": {"biological_target": "Fuc(a1-3)[Gal(b1-4)]GlcNAc(b1-3)Gal(b1-4)[Fuc(a1-3)]GlcNAc(b1-3)Gal(b1-4)[Fuc(a1-3)]GlcNAc", "in_short": "as §1"}, "[3]": {"biological_target": "Fuc(a1-3)[Gal(b1-4)]GlcNAc(b1-3)GalNAc", "in_short": "as §1"}, "[4]": {"biological_target": "Fuc(a1-3)[Gal(b1-4)]GlcNAc(b1-6)GalNAc", "in_short": "as §1"}, "[5]": {"biological_target": "Fuc(a1-3)[Gal(b1-4)]GlcNAc(b1-6)[Gal(b1-3)GlcNAc(b1-3)]Gal(b1-4)Glc", "in_short": "as §1"}, "[6]": {"biological_target": "Fuc(a1-3)[Gal(b1-4)]GlcNAc6S", "in_short": "as §1"}, "[7]": {"biological_target": "Fuc(a1-3)[Gal3S(b1-4)]Glc", "in_short": "as §1"}, "[8]": {"biological_target": "Fuc(a1-3)[Gal3S(b1-4)]GlcNAc", "in_short": "as §1"}, "[9]": {"biological_target": "Fuc(a1-3)[Gal3S(b1-4)]GlcNAc6S", "in_short": "as §1"}, "[10]": {"biological_target": "Fuc(a1-3)[GalNAc(b1-4)]GlcNAc", "in_short": "as §1"}, "[11]": {"biological_target": "Fuc(a1-3)[GalNAc(b1-4)]GlcNAc6S", "in_short": "as §1"}, "Fuc(a1-4)GlcNAc": {"biological_target": "Fuc(a1-4)GlcNAc", "in_short": "as §1"}, "Fuc(b1-3)GlcNAc": {"biological_target": "Fuc(b1-3)GlcNAc", "in_short": "as §1"}, "Gal(a1-2)Gal": {"biological_target": "Gal(a1-2)Gal", "in_short": "as §1"}, "Gal(a1-3)Gal": {"biological_target": "Gal(a1-3)Gal", "in_short": "as §1"}, "Gal(a1-3)Gal(b1-3)GlcNAc": {"biological_target": "Gal(a1-3)Gal(b1-3)GlcNAc", "in_short": "as §1"}, "[12]": {"biological_target": "Gal(a1-3)Gal(b1-3)GlcNAc(b1-2)Man", "in_short": "as §1"}, "[13]": {"biological_target": "Gal(a1-3)Gal(b1-3)GlcNAc(b1-2)Man(a1-3)[Gal(a1-3)Gal(b1-3)GlcNAc(b1-2)Man(a1-6)]Man(b1-4)GlcNAc(b1-4)GlcNAc", "in_short": "as §1"}, "[14]": {"biological_target": "Gal(a1-3)Gal(b1-3)GlcNAc(b1-3)GalNAc", "in_short": "as §1"}, "[15]": {"biological_target": "Gal(a1-3)Gal(b1-3)GlcNAc(b1-6)GalNAc", "in_short": "as §1"}, "[16]": {"biological_target": "Gal(a1-3)Gal(b1-3)[Fuc(a1-4)]GlcNAc(b1-2)Man(a1-3)[Gal(a1-3)Gal(b1-3)[Fuc(a1-4)]GlcNAc(b1-2)Man(a1-6)]Man(b1-4)GlcNAc(b1-4)GlcNAc", "in_short": "as §1"}, "Gal(a1-3)Gal(b1-4)Glc": {"biological_target": "Gal(a1-3)Gal(b1-4)Glc", "in_short": "as §1"}, "Gal(a1-3)Gal(b1-4)GlcNAc": {"biological_target": "Gal(a1-3)Gal(b1-4)GlcNAc", "in_short": "as §1"}, "[17]": {"biological_target": "Gal(a1-3)Gal(b1-4)GlcNAc(b1-2)Man", "in_short": "as §1"}, "[18]": {"biological_target": "Gal(a1-3)Gal(b1-4)GlcNAc(b1-2)Man(a1-3)[Gal(a1-3)Gal(b1-4)GlcNAc(b1-2)Man(a1-6)]Man(b1-4)GlcNAc(b1-4)GlcNAc", "in_short": "as §1"}, "[19]": {"biological_target": "Gal(a1-3)Gal(b1-4)GlcNAc(b1-3)GalNAc", "in_short": "as §1"}, "[20]": {"biological_target": "Gal(a1-3)Gal(b1-4)GlcNAc(b1-6)GalNAc", "in_short": "as §1"}, "[21]": {"biological_target": "Gal(a1-3)Gal(b1-4)[Fuc(a1-3)]GlcNAc", "in_short": "as §1"}, "[22]": {"biological_target": "Gal(a1-3)Gal(b1-4)[Fuc(a1-3)]GlcNAc(b1-2)Man(a1-3)[Gal(a1-3)Gal(b1-4)[Fuc(a1-3)]GlcNAc(b1-2)Man(a1-6)]Man(b1-4)GlcNAc(b1-4)GlcNAc", "in_short": "as §1"}, "Gal(a1-3)GalNAc": {"biological_target": "Gal(a1-3)GalNAc", "in_short": "as §1"}, "[23]": {"biological_target": "Gal(a1-3)[Gal(a1-4)]Gal(b1-4)GlcNAc", "in_short": "as §1"}, "[24]": {"biological_target": "Gal(a1-4)Gal(b1-3)GlcNAc(b1-2)Man(a1-3)[Gal(a1-4)Gal(b1-3)GlcNAc(b1-2)Man(a1-6)]Man(b1-4)GlcNAc(b1-4)GlcNAc", "in_short": "as §1"}, "Gal(a1-4)Gal(b1-4)Glc": {"biological_target": "Gal(a1-4)Gal(b1-4)Glc", "in_short": "as §1"}, "Gal(a1-4)Gal(b1-4)GlcNAc": {"biological_target": "Gal(a1-4)Gal(b1-4)GlcNAc", "in_short": "as §1"}, "[25]": {"biological_target": "Gal(a1-4)Gal(b1-4)GlcNAc(b1-2)Man(a1-3)[Gal(a1-4)Gal(b1-4)GlcNAc(b1-2)Man(a1-6)]Man(b1-4)GlcNAc(b1-4)GlcNAc", "in_short": "as §1"}, "[26]": {"biological_target": "Gal(a1-4)Gal(b1-4)GlcNAc(b1-3)Gal(b1-4)Glc", "in_short": "as §1"}, "Gal(a1-4)GlcNAc": {"biological_target": "Gal(a1-4)GlcNAc", "in_short": "as §1"}, "Gal(a1-6)Glc": {"biological_target": "Gal(a1-6)Glc", "in_short": "as §1"}}, "note": "The other results are listed elsewhere or left out.", "data": [{"binder": "B1", "values": [{"measurement": "glycan array binding signal (z-score)", "setting": "[1]", "result": -0.046}, {"measurement": "glycan array binding signal (z-score)", "setting": "[2]", "result": -0.413}, {"measurement": "glycan array binding signal (z-score)", "setting": "[3]", "result": 0.024}, {"measurement": "glycan array binding signal (z-score)", "setting": "[4]", "result": -0.172}, {"measurement": "glycan array binding signal (z-score)", "setting": "[5]", "result": -0.151}, {"measurement": "glycan array binding signal (z-score)", "setting": "[6]", "result": -0.491}, {"measurement": "glycan array binding signal (z-score)", "setting": "[7]", "result": 0.145}, {"measurement": "glycan array binding signal (z-score)", "setting": "[8]", "result": 0.526}, {"measurement": "glycan array binding signal (z-score)", "setting": "[9]", "result": 0.417}, {"measurement": "glycan array binding signal (z-score)", "setting": "[10]", "result": 0.563}, {"measurement": "glycan array binding signal (z-score)", "setting": "[11]", "result": -0.236}, {"measurement": "glycan array binding signal (z-score)", "setting": "Fuc(a1-4)GlcNAc", "result": 0.096}, {"measurement": "glycan array binding signal (z-score)", "setting": "Fuc(b1-3)GlcNAc", "result": -0.207}, {"measurement": "glycan array binding signal (z-score)", "setting": "Gal(a1-2)Gal", "result": 0.617}, {"measurement": "glycan array binding signal (z-score)", "setting": "Gal(a1-3)Gal", "result": -0.199}, {"measurement": "glycan array binding signal (z-score)", "setting": "Gal(a1-3)Gal(b1-3)GlcNAc", "result": 8.73}, {"measurement": "glycan array binding signal (z-score)", "setting": "[12]", "result": -0.43}, {"measurement": "glycan array binding signal (z-score)", "setting": "[13]", "result": -0.246}, {"measurement": "glycan array binding signal (z-score)", "setting": "[14]", "result": -0.309}, {"measurement": "glycan array binding signal (z-score)", "setting": "[15]", "result": 2.28}, {"measurement": "glycan array binding signal (z-score)", "setting": "[16]", "result": -0.183}, {"measurement": "glycan array binding signal (z-score)", "setting": "Gal(a1-3)Gal(b1-4)Glc", "result": -0.19}, {"measurement": "glycan array binding signal (z-score)", "setting": "Gal(a1-3)Gal(b1-4)GlcNAc", "result": -0.271}, {"measurement": "glycan array binding signal (z-score)", "setting": "[17]", "result": -0.338}, {"measurement": "glycan array binding signal (z-score)", "setting": "[18]", "result": -0.053}, {"measurement": "glycan array binding signal (z-score)", "setting": "[19]", "result": -0.213}, {"measurement": "glycan array binding signal (z-score)", "setting": "[20]", "result": 6.42}, {"measurement": "glycan array binding signal (z-score)", "setting": "[21]", "result": -0.064}, {"measurement": "glycan array binding signal (z-score)", "setting": "[22]", "result": 0.637}, {"measurement": "glycan array binding signal (z-score)", "setting": "Gal(a1-3)GalNAc", "result": -0.381}, {"measurement": "glycan array binding signal (z-score)", "setting": "[23]", "result": -0.415}, {"measurement": "glycan array binding signal (z-score)", "setting": "[24]", "result": -0.005}, {"measurement": "glycan array binding signal (z-score)", "setting": "Gal(a1-4)Gal(b1-4)Glc", "result": -0.375}, {"measurement": "glycan array binding signal (z-score)", "setting": "Gal(a1-4)Gal(b1-4)GlcNAc", "result": -0.244}, {"measurement": "glycan array binding signal (z-score)", "setting": "[25]", "result": -0.307}, {"measurement": "glycan array binding signal (z-score)", "setting": "[26]", "result": -0.348}, {"measurement": "glycan array binding signal (z-score)", "setting": "Gal(a1-4)GlcNAc", "result": 0.225}, {"measurement": "glycan array binding signal (z-score)", "setting": "Gal(a1-6)Glc", "result": -0.11}]}]}
